# Laboratory results taken from PubChem BioAssay AID485367 (National Center for Advancing Translational Sciences (NCATS), 2010).
# Hit rate of the full screen: of about 330,000 compounds, about 560 (0.17%) were called active. Inconclusive results, whose numbers are uncertain, are shown with a selection of clear calls. The call rests on the fitted dose curve; in most records, active means well fitted inhibition curve with a large enough effect; inconclusive means small, poorly fitted or top-dose-only effect, or effect the other way; inactive means flat fitted curve, though single readings scatter. Potencies of inconclusive entries are left out as doubtful fits.
# Molecular target: ATP-dependent 6-phosphofructokinase (Trypanosoma brucei brucei) (UniProt O15648)
# UniProt O15648, sequence (O15648 whole entry, looked up): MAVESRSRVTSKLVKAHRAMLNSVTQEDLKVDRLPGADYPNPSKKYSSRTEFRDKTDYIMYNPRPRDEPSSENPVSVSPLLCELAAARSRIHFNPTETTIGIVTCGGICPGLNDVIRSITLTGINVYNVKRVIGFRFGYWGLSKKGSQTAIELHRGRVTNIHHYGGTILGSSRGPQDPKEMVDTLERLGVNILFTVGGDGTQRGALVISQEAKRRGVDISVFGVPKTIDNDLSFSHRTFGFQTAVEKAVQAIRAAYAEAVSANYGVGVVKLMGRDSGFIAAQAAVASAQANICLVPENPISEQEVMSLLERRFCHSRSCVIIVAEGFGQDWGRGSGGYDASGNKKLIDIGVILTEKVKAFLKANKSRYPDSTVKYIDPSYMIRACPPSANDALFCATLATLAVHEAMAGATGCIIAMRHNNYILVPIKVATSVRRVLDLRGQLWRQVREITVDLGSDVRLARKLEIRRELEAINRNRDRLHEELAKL
# Assay: qHTS Assay to Find Inhibitors of T. brucei phosphofructokinase; further: nearly all actives have a fitted effect of over 60% in size
# Conditions: T. brucei PFK, ADP-Glo luminescence; activity, negative = inhibition: at 57.5 µM (top of the series)
# From the text: NIH Molecular Libraries Probe Production Network [MLPCN] NIH Chemical Genomics Center [NCGC] Grant: 1 R03 MH092153-01 PI Name: Malcolm Walkinshaw, University of Edinburgh NCGC Assay Overview: Various species of the protozoan family Trypanosomatidae are responsible for a range of serious human diseases in tropical and subtropical areas of the world. […] Many of the disorders caused by trypanosomatids are fatal if left untreated, but most currently used drugs are inefficient and toxic. […] Oxidative metabolism involving the mitochondrial tricarboxylic acid cycle and oxidative phosphorylation are repressed in these parasites, and recent RNA interference (RNAi) experiments have shown that even partial depletion of certain individual glycolytic enzymes can lead to the death of cultured parasites. One such glycolytic enzyme, phosphofructokinase (PFK), catalyzes the formation of fructose-1,6-bisphosphate (F1,6BP) and ADP from fructose-6-phosphate (F6P) and ATP, and in many metabolic circumstances makes an important contribution to the control of flux through the glycolytic pathway. As a specific glycolytic target, PFK is particularly attractive as it catalyzes the first irreversible step in glycolysis, and structural and kinetic studies have shown very substantial and essential differences from corresponding host enzymes, allowing for the discovery of parasite-selective inhibitors. The goal of this screen is to find small-molecule inhibitors of T. brucei PFK using a biochemical assay that measures PFK activity as a function of ADP production. A luminescence-based assay for T. brucei PFK activity has been developed which uses luciferase to detect production of ADP. Traditional luciferase-based nucleotide detection reagents rely on ATP production as a direct substrate for the luciferase reaction; however, PFK catalyzes the transfer of a phosphate from ATP to F6P, resulting in the net depletion of ATP. To directly measure the ADP product of the PFK reaction, we used the ADP-Glo detection kit (Promega), which utilizes two separate reactions to 1) deplete all remaining uncatalyzed ATP and 2) convert all remaining ADP to ATP, which is then detected through a traditional luciferase-coupled reaction. Compounds were screened as a concentration-titration series that ranged from 57 uM to 0.7 nM.
# NCGC Assay Protocol Summary: NCGC Assay Protocol Summary: Substrate buffer was dispensed into white, solid 1536-well plates at 3uL/well in 0.1M triethanolamine (TEA) buffer, pH 8.0, containing final concentrations of 5 mM MgCl2, 0.01% Tween20, 0.5 mM fructose-6-phosphate (F6P) and 0.1mM ATP. Then, 23 nL of compounds or DMSO were delivered to each well using a pin tool. One uL T. brucei PFK (0.1M TEA, 0.01% Tween20, 0.1% bovine serum albumin (BSA) and 1.25nM PFK, final concentrations) was then dispensed, and plates were incubated at room temperature for 45 min. The luminescent detection reagent, ADP-Glo (Promega), was then added in two steps: the first reagent, ADP-Glo (which converts remaining uncatalyzed ATP), was added at 2.5uL/well and incubated for ten minutes at room temperature, and the second component, Kinase Detection reagent (which converts ADP to ATP as a substrate for luciferase-based luminescence), was added immediately after at 5uL/well, followed by one final ten minute room temperature incubation. The plates were measured on a ViewLux plate reader for luminescent signal using a clear filter with a one second exposure. The %Activity was determined from the corrected luminescence values. As no specific T. brucei PFK inhibitors have been identified in the literature, 1x (1.25nM) and 0x PFK enzyme controls (untreated) were included to normalize %Activity of identified inhibitors; 0x enzyme values corresponded to 100%Activity (full inhibition), while 1x PFK enzyme values were used to normalize 0%Activity (no inhibition). Concentration-response curves were fitted to the signals arising from the resulting luminescence. […]
# Potency means the concentration at half of the fitted maximal effect; tags describe the fitted curve by direction and shape.
Compound,Potency,"activity, negative = inhibition"
Cc1cccc(NC(=O)CSc2nnc(-c3ccco3)c(-c3ccco3)n2)c1C,"inconclusive [falling, single point]",
O=C(CCCSc1ccc(Cl)cc1)Nc1cc(S(=O)(=O)N2CCOCC2)ccc1O,"inconclusive [falling, single point]",
C=CC[C@@H](CC(=O)N(CCO)Cc1ccccc1)C(=O)N[C@H](C)COC(=O)[C@@H](CC=C)Cc1ccc(F)cc1,,inactive: 8.31%
Cc1ccc(-n2nc(-c3ccco3)cc2C(=O)O)cc1,,inactive: 1.67%
CNC(=S)Nc1ccc([N+](=O)[O-])cc1,"inconclusive [falling, partial curve]",
COc1cccc(NC(=O)N2CCC(N3CCCCC3)CC2)c1,"inconclusive [activator, single point]",
O=C(COc1ccccc1Cl)Nc1ccc(S(=O)(=O)Nc2ccccn2)cc1,"inconclusive [falling, single point]",
COC/C=C/C1=CC2=CC(=O)C(C)(OC(=O)c3cnc4ccccc4n3)C(=O)C2=CN1c1ccc(CO)cc1 (stereo not drawn),active: 4.78 µM,
C/C(=N/Nc1ccc(Cl)cc1)c1cnnc(-c2ccccc2)n1,,inactive: 5.32%
CCCCOc1ccc(OCCNC(=O)c2ccco2)cc1,"inconclusive [falling, single point]",
Cc1ccccc1-n1c(SC/C(O)=C(\C#N)c2nc3ccccc3[nH]2)nnc1-c1ccncc1,,inactive: 1.63%
O=C(/C=C/c1c[nH]c2ccccc12)c1ccccc1,,inactive: -3.07%
COc1cc(C(=O)Nc2ccc3ccccc3c2)cc(OC)c1OC,,inactive: 1.4%
Fc1cccc(-c2csc(-c3ccno3)n2)c1,"inconclusive [falling, partial curve]",
N#C/C(=C\Nc1ccccc1SC(F)(F)F)c1nc(-c2ccc(Cl)cc2)cs1,"inconclusive [falling, single point]",
CC(=O)Nc1nc(-c2ccc(Cl)cc2)nc(C)c1C(C)=O,"inconclusive [falling, partial curve]",
CCOc1ccccc1NC(=O)CN1CCCCCC1,,inactive: -2.06%
CN(C)c1ccc(N=Nc2ccc(S(N)(=O)=O)cc2)cc1,"inconclusive [falling, single point]",
O=C(c1ccc(=O)n(Cc2ccccc2)n1)N1CCN(C/C=C/c2ccccc2)CC1,"inconclusive [activator, partial curve, poor fit]",
CN1CCN(CCCNC(=O)Cn2ncc3c4ccccc4n(C)c3c2=O)CC1,,inactive: 9.07%
O=C(Nc1csc([N+](=O)[O-])c1)Nc1ccccc1Cl,"inconclusive [falling, single point]",
O=C(O[C@@H]1OC2COC(=O)c3cc(O)c(O)c(O)c3-c3c(cc(O)c(O)c3O)C(=O)O[C@@H]([C@H]1O)[C@@H]2O)c1cc(O)c(O)c(O)c1,active: 2.13 µM,

Compound,Potency,"activity, negative = inhibition"
CCCn1nnnc1NCc1ccccc1Cl,"inconclusive [falling, single point]",
NS(=O)(=O)c1cc(C(=O)NC2CCSc3ccccc32)ccc1Cl (stereo not drawn),"inconclusive [falling, partial curve]",
O=C(Oc1cccc(C(=S)N2CCOCC2)c1)c1ccccc1,"inconclusive [falling, single point]",
COC(=O)[C@@]1(Cc2ccccc2)[C@H]2C(=O)N(C)C(=O)[C@H]2[C@H]2CN=C(SCc3ccccc3)N21,,inactive: -4.93%
N/C(CC(=O)Nc1ccc(F)c(Cl)c1)=N\OC(=O)c1cccs1,"inconclusive [falling, partial curve]",
O=[N+]([O-])c1ccc(NC(=S)N/C(=N/CS(=O)(=O)c2ccccc2)c2ccccc2)cc1,"inconclusive [falling, single point]",
O=C(NNC(=O)c1cccc(-n2cccc2)c1)c1ccc(F)cc1,"inconclusive [falling, partial curve]",
COc1ccccc1NC(=O)CC1C(=O)NCCN1C(=O)Nc1ccc(Cl)c(Cl)c1 (stereo not drawn),"inconclusive [falling, partial curve]",
CC(C)c1ccc(N2C=Nc3ccc(C(C)C)cc3C2)cc1,,inactive: 0.933%
CCN1CCN(C(=S)c2ccc([N+](=O)[O-])cc2)CC1,"inconclusive [falling, single point]",
COc1ccc2c(c1)c(=O)oc1cc(OCC(=O)N3CCc4ccccc4C3)ccc12,"inconclusive [falling, full curve]",
CC1=C(C(=O)OC(C)C)C(c2cccc([N+](=O)[O-])c2)n2c(cc(=O)[nH]c2=S)N1 (stereo not drawn),"inconclusive [falling, full curve, poor fit]",
C/C=C\C=C\C(=O)N1CC2(CC(c3cccc(NC(=O)COc4ccc(Cl)cc4)c3)=NO2)C[C@H]1C(N)=O (stereo partly drawn),"inconclusive [falling, single point]",
Cc1c(NC(=O)c2cnn3c2NC(c2ccc(Br)cc2)CC3C(F)(F)F)c(=O)n(-c2ccccc2)n1C (stereo not drawn),,inactive: -1.41%
N/C(=N\OC(=O)c1ccccc1)c1ccccn1,"inconclusive [falling, partial curve]",
O=C1CNC(=O)/C1=C/c1ccccc1,"inconclusive [activator, partial curve]",
O=C(O)c1cnn(-c2nc(-c3cccc([N+](=O)[O-])c3)cs2)c1C(F)(F)F,"inconclusive [activator, single point]",
Cc1ccccc1C(=O)NN1CC(C(=O)OCc2ccc(Cl)c(Cl)c2)CC1=O (stereo not drawn),"inconclusive [falling, partial curve]",
COc1ccc(-c2nc3ccccc3c(=O)n2CCOc2cc(C)ccc2C)cc1,"inconclusive [falling, single point]",
COc1cc(COCC(O)CN2CCN(CCN3C(=O)c4cccc5cccc(c45)C3=O)CC2)cc(OC)c1OC (stereo not drawn),,inactive: 11%
O=C(Nc1ccc(C(=O)N2CCCC2)cc1)c1ccccc1F,"inconclusive [falling, single point]",
